This test deals with MtOASS (O-acetylserine sulfhydrylase) (Mycobacterium tuberculosis, UniProt P9WP55).

Take `CSCC[C@H](N)C(=O)O` [Methionine, L-methionine]: the “enthalpic contribution to binding free energy” value is reported as 5%.

Turning to `CC(=O)OC[C@H](N)C(=O)O` [OAS, O-acetylserine], for the setting “25°C”, the “contribution of enthalpy to total binding free energy” value is “less than 3%” and the enthalpy value came out at 0.53 ± 0.3 kJ/M.

Values taken from article PMC3141655 (BMC Biochemistry, 2011).
